Measurements published in PubChem BioAssay AID686978 (National Center for Advancing Translational Sciences (NCATS), 2013).
Out of some 420,000 compounds screened, about 64,000 (15%) were called active. The shares of active, inactive and inconclusive entries below differ from those in the screen. The call rests on the fitted dose curve; in most records, active means well fitted inhibition curve with a large enough effect; inconclusive means small, poorly fitted or top-dose-only effect; inactive means flat fitted curve, though single readings scatter. Potencies of inconclusive entries are left out as doubtful fits.

experiment: qHTS for Inhibitors of human tyrosyl-DNA phosphodiesterase 1 (TDP1): qHTS in cells in absence of CPT; details: DT40 Tdp1-/- hTDP1 cells, no CPT, ATP luminescence, 48 h; activity change, negative = growth inhibition: at 46.2 µM (top of the series); further: nearly all actives have a fitted effect of over 55% in size
In short: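 Readout: luminescence from CellTiter-Glo after 30 min in the dark at RT. Cells: DT40 Tdp1-/- with stable hTDP1, 400/well. Exposure: compounds alone, ≥48 hr, 37 °C.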
On the % scale 0 is the no-effect control and ±100 the full control effect; potency means the concentration at half of the fitted maximal effect; tags describe the fitted curve by direction and shape.

Row | SMILES | Potency | activity change, negative = growth inhibition
1 | Cc1ccc(-c2csc(NC(=O)c3ccc4c(=O)n5c(nc4c3)CCCCC5)n2)cc1 | active: 13 µM | –
2 | C=CCNc1nc(SCC=C)nc2ccsc12 | inconclusive [inhibitor, partial curve, poor fit] | –
3 | Cc1ccc(O)c(-c2cc(C(=O)Nc3ccc(S(=O)(=O)Nc4nccc(C)n4)cc3)[nH]n2)c1 | inactive | –
4 | CCOC(=O)C1=C(C)Nc2sc(C(=O)c3ccc(C)cc3)c(N)c2C1c1ccc(C(=O)OC)cc1 (configuration not stated) | inconclusive [inhibitor, single point] | –
5 | Cc1ccc(S(=O)(=O)N2CCN(C(=O)COC(=O)c3cnc(C)cn3)CC2)c(C)c1 | inactive | –
6 | O=C(CN1CCN(C2CCCCC2)C(=O)C1=O)Nc1ccc(Cl)cc1 | inconclusive [inhibitor, partial curve, poor fit] | –
7 | CC(=O)c1ccc(NC(=S)N2CCN(c3ccccn3)CC2)cc1 | – | inconclusive: -30.7% [inhibitor]
8 | COc1ccc(NC(=O)CC(C)S(=O)(=O)c2ccc3c(c2)NC(=O)CO3)cc1OC (configuration not stated) | inactive | –
9 | COc1ccc(C(=O)NC(C)c2ccccc2)cc1Br (configuration not stated) | inactive | –
10 | CC(c1ccc(N(C)C)cc1)c1ccnc2ccccc12 (configuration not stated) | inconclusive [inhibitor, partial curve] | –
11 | COc1ccc(C(O)c2ncc(-c3ccccc3OC)[nH]2)cc1F (configuration not stated) | inactive | –
12 | O=C1C=C(NCCc2cc(Br)c(O)c(Br)c2)C(=O)c2ncccc21 | active: 2.06 µM | –
13 | Cc1ccc(NC(=O)c2nc[nH]c2C(=O)N2CCC(C)CC2)cc1 | inconclusive [inhibitor, single point] | –
14 | CC(=O)NCCC(=O)N(C)CC1CCN(CCc2cccc(C(F)(F)F)c2)CC1 | inconclusive [inhibitor, single point] | –
15 | O=C1c2cccc3cccc(c23)C(=O)N1OS(=O)(=O)c1ccc(Br)cc1 | active: 10.3 µM | –
16 | CC(C)CCN1C(=O)c2ccccc2CC1(C)C(=O)NC1CCCCC1 (configuration not stated) | inconclusive [inhibitor, single point] | –
17 | CCN(CC)S(=O)(=O)c1cccc(-c2nnc(SCCOc3ccccc3C)o2)c1 | inconclusive [inhibitor, single point] | –
18 | COC(=O)Cc1c(C)c2ccc(OCC(C)=O)c(C)c2oc1=O | inconclusive [inhibitor, partial curve] | –
19 | Cc1nnc(NC(=O)COc2ccccc2)s1 | inactive | –
20 | CCC(C)[C@H]1CNC(=S)N1CCc1cc(C(F)(F)F)cc(C(F)(F)F)c1 (some centres not stated) | active: 20.6 µM | –
21 | COc1cc(C(C(=O)NC2CCCCC2)N(Cc2ccco2)C(=O)c2cnccn2)cc(OC)c1OC (configuration not stated) | inactive | –
22 | O=C(Nc1cccc(C(F)(F)F)c1)c1csc([C@@H]2C[C@H](O)[C@@H](CO)O2)n1 | inactive | –
23 | COc1ccc(CCNC(=O)Cn2c(=O)n(CC3CCCO3)c(=O)c3cc(OC)c(OC)cc32)cc1OC (configuration not stated) | inconclusive [inhibitor, single point] | –
24 | CCN(CC)c1ccc(S(=O)(=O)N2CCOCC2)cc1NC(=O)COC(=O)C1=COCCO1 | inconclusive [inhibitor, single point] | –

Row | SMILES | Potency | activity change, negative = growth inhibition
25 | CCC(=O)Nc1ccccc1C(=O)OCc1cc(=O)n2cc(C)sc2n1 | inconclusive [inhibitor, partial curve] | –
26 | COc1ccc(-c2oc(=O)c3cc(OC)c(OC)cc3c2C#CCCO)cc1 | active: 20.6 µM | –
27 | COc1ccc(Cn2nnnc2C(c2ccccc2)N2CCN(c3ccccc3)CC2)cc1 (configuration not stated) | inconclusive [inhibitor, single point] | –
28 | O=C(Nc1ccc(Cl)cc1)c1ccc(OCC2CCCO2)cc1 (configuration not stated) | inconclusive [inhibitor, single point] | –
29 | O=C(c1cccc(F)c1)N1CCC2(CC1)CCN(c1ccccc1)CC2 | inconclusive [inhibitor, single point] | –
30 | CC(=O)NCCC(=O)Nc1cc(S(=O)(=O)N2CCOCC2)ccc1Oc1ccc(F)cc1 | inactive | –
31 | Cc1cccc(Nc2nc(-c3ccc4c(c3)OCCO4)cs2)c1 | inactive | –
32 | O=c1c2c(nc3n1CCCCC3)sc1c(O)c(Br)ccc12 | inactive | –
33 | COc1ccc(/C=N\NC(=O)COc2ccccc2Cl)cc1Cn1nc(C)cc1C | active: 23.1 µM | –
34 | O=S(=O)(c1ccccc1)c1nc(-c2ccccc2Cl)oc1NCCN1CCOCC1 | inconclusive [inhibitor, single point] | –
35 | CC(=S)/C=C1\Sc2ccccc2N1C | active: 23.1 µM | –
36 | O=C1CN(CCN2CC(=O)NC(=O)C2)CC(=O)N1 | active: 7.08 µM | –
37 | CC1CN(c2ccc(NC(=S)Nc3ccc(N4CC(C)OC(C)C4)cc3)cc2)CC(C)O1 (configuration not stated) | inconclusive [inhibitor, partial curve] | –
38 | Cc1cn([C@H]2C[C@H](O)[C@@H](CNCc3cc(Cl)ccc3OCc3ccc(Cl)cc3)O2)c(=O)[nH]c1=O | inconclusive [inhibitor, single point] | –
39 | Cc1nnc(NC(=O)CSc2nnc(CNC(=O)c3ccc(S(=O)(=O)N(C)C)cc3)o2)s1 | inactive | –
40 | CC(=C\c1ccccc1)/C=C1/SC(=S)N(C(C(=O)O)C(C)C)C1=O (configuration not stated) | – | inconclusive: -35.2% [inhibitor]
41 | O=C(NCC1CCCO1)c1sc2cc(Cl)ccc2c1Cl (configuration not stated) | inactive | –
42 | Nc1ccc(N=Nc2ccc(N)cc2)cc1 | – | inconclusive: -31.2% [inhibitor]
43 | COc1cc2c(cc1OC)CN(C(=O)c1ccc(S(=O)(=O)N3CCCCC3)cc1)CC2 | active: 16.4 µM | –
44 | Fc1ccc(CSc2nnc(-c3cc4c(s3)-c3ccccc3CC4)o2)cc1 | inconclusive [inhibitor, single point] | –
45 | CCOc1ccc(-n2nc3ccc(NC(=O)c4ccc(C)cc4C)cc3n2)cc1 | inconclusive [inhibitor, single point] | –
46 | CCn1c(CNc2ccc(C)cc2C)nnc1SCC(=O)N1CCCc2ccccc21 | inconclusive [inhibitor, single point] | –
47 | CC(C)CCNC(=O)C1(c2cccs2)CCOCC1 | inactive | –
48 | COC(=O)c1cccc(NC(=O)c2ccc3c(c2)C(=O)N(Cc2cccnc2)C3=O)c1 | inactive | –

Row | SMILES | Potency | activity change, negative = growth inhibition
49 | CCOC(=O)c1c(C)nn(Cc2cccc(Cl)c2)c1N | inconclusive [inhibitor, single point] | –
50 | Cc1cccc(/C=N/NC(=O)c2ccc(NC(=O)c3ccc(F)cc3)cc2)n1 | inconclusive [inhibitor, single point] | –
51 | CCc1nnc(NC(=O)CSc2nc(-c3ccc(F)cc3)cc(-c3ccccc3)c2C#N)s1 | inconclusive [inhibitor, partial curve] | –
52 | O=C(c1cccs1)N1CCN(Cc2cn[nH]c2-c2ccc(F)cc2F)CC1 | inactive | –
53 | O=C(Nc1c(C(=O)N2CCN(c3ccccc3)CC2)oc2ccccc12)c1ccccc1F | inconclusive [inhibitor, single point] | –
54 | CC1(C)CN(Cc2cccnc2)C(=O)[C@H]1CC(=O)Nc1ccc(Br)cc1 | inconclusive [inhibitor, single point] | –
55 | O=C(CN1C(=O)COc2ccccc21)NCCN1CCC(Cc2ccccc2)CC1 | inconclusive [inhibitor, partial curve, poor fit] | –
56 | COc1ccc(Cl)cc1NC(=O)CC(C)c1ccccc1 (configuration not stated) | inconclusive [inhibitor, full curve, poor fit] | –
57 | COc1ccc(Cl)cc1C(=O)NCCc1ccc(S(=O)(=O)NC(=O)NC2CCCCC2)cc1 | – | inconclusive: -32.5% [inhibitor]
58 | CCOC(=O)C1(C)CCN1C(=O)c1cccnc1Oc1ccccc1 (configuration not stated) | inactive | –
59 | CCCCc1ccc(CC(=O)NO)cc1 | inconclusive [inhibitor, single point] | –
60 | Cc1[nH]c2ccccc2c1/C=N/Nc1ccccc1[N+](=O)[O-] | inconclusive [inhibitor, partial curve, poor fit] | –
61 | CCN1CCOC(=O)C1CC(=O)Nc1cc(Cl)ccc1C (configuration not stated) | active: 14.6 µM | –
62 | COc1ccccc1N1CCN(C2CCN(C(=O)c3ccc(F)cc3)CC2)CC1 | inactive | –
63 | Nc1nc(=O)n([C@@H]2CS[C@H](CO)O2)cc1F | inconclusive [inhibitor, single point] | –
64 | O=C(CN1CCN(S(=O)(=O)c2ccc(Br)cc2)CC1)N/N=C/c1cc([N+](=O)[O-])ccc1Cl | inconclusive [inhibitor, single point] | –
65 | CCN1CCN(CCCNC(=O)c2cnn(-c3ccc(OC)cc3)c2C2CCN(C(=O)OC(C)(C)C)CC2)CC1 | inactive | –
66 | c1ccc(-c2nnc(-c3ccccn3)nc2NC2CCCCC2)cc1 | active: 5.8 µM | –
67 | O=C(CO/N=C/c1cccc([N+](=O)[O-])c1)NC1CCCCCC1 | inconclusive [inhibitor, single point] | –
68 | CN1C[C@@H]2[C@@H]3C(=O)N(Cc4ccccc4)C(=O)[C@@H]3[C@](C)(C1=O)N2C(=O)c1ccc(F)cc1 | inactive | –
69 | CC1(C(=O)Nc2ccc(Cl)c(Cl)c2)CCN1C(=O)C1CCCCC1 (configuration not stated) | inconclusive [inhibitor, single point] | –
70 | NC(=O)C1CCN(C(=O)COc2ccc3ccccc3c2Br)CC1 | inactive | –
71 | CCOC(=O)c1cnn(-c2cc(Oc3ccccc3C)ncn2)c1N | inconclusive [inhibitor, single point] | –
72 | Cc1onc(-c2ccccc2)c1-c1nc2cc(Cl)ccc2c(=O)o1 | inconclusive [inhibitor, partial curve] | –
